Assay results reported in the supplement of paper PMC3334620.
In all, about 33,000 sequences were measured (“E-score (-0.5 to 0.5)”: median about -0.01, highest 2% from about 0.26 on). The list shows a part of the results.

These sequences were tested against Ste12 (UniProt P13574) (assay: PBM E-score (8-mer binding enrichment) (E-score (-0.5 to 0.5)); higher = stronger / more preferred TF binding; most listed sequences are background and not binding sites). Settings: protein concentration: 200 nM; construct: GST-DNA-binding domain.
Summary of the method: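 Masliner-normalised scans of fluorescent anti-GST signal were the basis for scoring. That signal came from GST-tagged yeast transcription factors applied at about 100-200 nM to double-stranded universal all-10-mer Agilent arrays on fresh or once-stripped slides. Each ungapped eight-base word, pooled with its reverse complement, received an E-score from the Universal PBM Analysis Suite.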
For ATCCCAGC, the “PBM E-score” value was -0.139.
In the case of CTTACCTC, the “PBM E-score” value was -0.115.
With ACGCTGCG the “PBM E-score” value was -0.0283.
CGAAAAAA was tested, and the “PBM E-score” value was 0.308.
With CCTTTCCG the “PBM E-score” value was 0.115.
AACTCAGA was tested, and the “PBM E-score” value was 0.0741.
With AAAATGCA the “PBM E-score” value was 0.00439.
For CACAGTGC, the “PBM E-score” value was -0.188.
In the case of CTCCCGAA, the “PBM E-score” value was -0.0605.
For ATCCACTA, the “PBM E-score” value was -0.0722.
In the case of CTTCACGC, the “PBM E-score” value was -0.0578.
With AGCAGTAT the “PBM E-score” value was 0.0947.
With GGGGAGAC the “PBM E-score” value was -0.0846.
With AACGTATT the “PBM E-score” value was 0.0441.
With CAGCTAAA the “PBM E-score” value was -0.0448.
In the case of CAACATGA, the “PBM E-score” value was 0.0787.
For GCGTTAAA, the “PBM E-score” value was 0.0836.
For AAACCAAT, the “PBM E-score” value was 0.225.
For GGAAACCC, the “PBM E-score” value was -0.0121.
For GCCTTTCC, the “PBM E-score” value was -0.21.
In the case of GCATATCA, the “PBM E-score” value was 0.0522.
For CCACTGGA, the “PBM E-score” value was -0.225.
For ATCCTGAG, the “PBM E-score” value was 0.0586.
For CTTAAAGC, the “PBM E-score” value was -0.0197.
For CCTATCCC, the “PBM E-score” value was 0.116.
AATTACAG was tested, and the “PBM E-score” value was 0.201.
With ATGTGCCA the “PBM E-score” value was -0.0367.
AAATTTTA was tested, and the “PBM E-score” value was 0.132.
GCGCCACA was tested, and the “PBM E-score” value was -0.00969.
In the case of AGACGCCC, the “PBM E-score” value was 0.0625.
For CCAAAATC, the “PBM E-score” value was 0.183.
CCGATTGA was tested, and the “PBM E-score” value was -0.0246.
In the case of CCATGGCG, the “PBM E-score” value was -0.0357.
For AACGTGAT, the “PBM E-score” value was 0.0239.
With CCTTCCGC the “PBM E-score” value was -0.0635.
GAATGACC was tested, and the “PBM E-score” value was 0.101.
ACGCCTAC was tested, and the “PBM E-score” value was -0.26.
For AATAGTTA, the “PBM E-score” value was 0.143.
In the case of AGAGCCCG, the “PBM E-score” value was -0.0751.
In the case of ATTAACAA, the “PBM E-score” value was 0.216.
In the case of GAACACCA, the “PBM E-score” value was -0.0568.
With CCTCCAAG the “PBM E-score” value was -0.115.
With ACCGTTAT the “PBM E-score” value was 0.0594.
ACTCATCA was tested, and the “PBM E-score” value was 0.0605.
For AGGCACCA, the “PBM E-score” value was 0.0748.
With AATCGATA the “PBM E-score” value was -0.0141.
TCGTTAAA was tested, and the “PBM E-score” value was 0.181.
With CACATCTC the “PBM E-score” value was 0.00481.
TCATCAAA was tested, and the “PBM E-score” value was 0.236.
In the case of TCGATAGA, the “PBM E-score” value was -0.246.
With GAGCAATA the “PBM E-score” value was 0.065.
In the case of AGCACTTC, the “PBM E-score” value was -0.149.
AAGTGGGG was tested, and the “PBM E-score” value was -0.0336.
For CATTAGTA, the “PBM E-score” value was 0.071.
ACCCATCC was tested, and the “PBM E-score” value was 0.00204.
CAAAACGA was tested, and the “PBM E-score” value was 0.272.
In the case of ATGAGATC, the “PBM E-score” value was -0.14.
In the case of CAAATTAA, the “PBM E-score” value was 0.203.
In the case of CACGACGA, the “PBM E-score” value was -0.118.
With ATCCGTTC the “PBM E-score” value was 0.0693.
AATACAAT was tested, and the “PBM E-score” value was 0.0948.
In the case of AACGGTGA, the “PBM E-score” value was -0.122.
With AAGTGGAG the “PBM E-score” value was 0.0169.
CATTCTGC was tested, and the “PBM E-score” value was 0.0299.
For ATCACCTA, the “PBM E-score” value was -0.089.
With TAAACAGA the “PBM E-score” value was 0.0943.
CTCAAGCA was tested, and the “PBM E-score” value was -0.0187.
In the case of AATCATGC, the “PBM E-score” value was -0.0691.
For ACACATGC, the “PBM E-score” value was -0.14.
In the case of GAGGATCC, the “PBM E-score” value was -0.0539.
In the case of GTCTCGTA, the “PBM E-score” value was -0.14.
In the case of CAATTCAG, the “PBM E-score” value was -0.031.
For GTCTAAAC, the “PBM E-score” value was 0.221.
For ATCAGTAC, the “PBM E-score” value was -0.131.
In the case of CAGACCCG, the “PBM E-score” value was 0.0234.
ACGGGCAA was tested, and the “PBM E-score” value was -0.0669.
For CTACTATC, the “PBM E-score” value was 0.111.
With AAGAACGT the “PBM E-score” value was 0.0398.
With CCCCATGC the “PBM E-score” value was -0.0446.
With TTCGTCAA the “PBM E-score” value was 0.0624.
With CCAGTCCC the “PBM E-score” value was -0.107.
In the case of TGCCTCCA, the “PBM E-score” value was -0.237.
For CAGCGTGC, the “PBM E-score” value was -0.0326.
ATTTTCAC was tested, and the “PBM E-score” value was 0.23.
With AGGTAAGA the “PBM E-score” value was 0.0479.
With CTAGCGAG the “PBM E-score” value was -0.345.
In the case of ATCAACAT, the “PBM E-score” value was 0.0333.
In the case of AACCAATG, the “PBM E-score” value was 0.136.
With GCGTATGA the “PBM E-score” value was 0.0739.
For AATTATAG, the “PBM E-score” value was 0.179.
For AAGCCAAC, the “PBM E-score” value was 0.0721.
ACAGGAAT was tested, and the “PBM E-score” value was -0.09.
With GCGGCTAA the “PBM E-score” value was -0.0126.
In the case of GACCAGGA, the “PBM E-score” value was -0.183.
TGGGTGAA was tested, and the “PBM E-score” value was 0.184.
For CGAATATC, the “PBM E-score” value was 0.00063.
In the case of CACCTGAG, the “PBM E-score” value was 0.0638.
With AGGATAAG the “PBM E-score” value was -0.0783.
TTCATCAA was tested, and the “PBM E-score” value was 0.176.
For TATTCTAA, the “PBM E-score” value was 0.196.
With TAGCATGA the “PBM E-score” value was -0.0841.
With ATTCAATA the “PBM E-score” value was 0.155.
For CGATCGAC, the “PBM E-score” value was 0.0634.
In the case of ACTGTCAG, the “PBM E-score” value was 0.0465.
GTTAGGCA was tested, and the “PBM E-score” value was -0.306.
With CGCAATCC the “PBM E-score” value was 0.155.
AATTACTC was tested, and the “PBM E-score” value was 0.11.
With GAGGTCTA the “PBM E-score” value was 0.0072.
For ACCGTGTG, the “PBM E-score” value was -0.064.
For ACTCCTTC, the “PBM E-score” value was -0.154.
For CGGCTTTC, the “PBM E-score” value was -0.0465.
For AGCTAGAG, the “PBM E-score” value was -0.136.
For ACCCCTCT, the “PBM E-score” value was -0.0156.
In the case of ACGGATTG, the “PBM E-score” value was -0.115.
In the case of GATGCTGC, the “PBM E-score” value was -0.322.
With AAAGGGTG the “PBM E-score” value was -0.00052.
CCTACCGA was tested, and the “PBM E-score” value was -0.146.
With CGGGTCGA the “PBM E-score” value was -0.0237.
In the case of ACATGTGC, the “PBM E-score” value was -0.0339.
In the case of GGGGTTGA, the “PBM E-score” value was -0.015.
For GATAAACC, the “PBM E-score” value was 0.0557.
With GACCTCTC the “PBM E-score” value was -0.00492.
For CTCGGAAG, the “PBM E-score” value was -0.0488.
In the case of AACTACCG, the “PBM E-score” value was -0.0753.
In the case of CTAGAGAC, the “PBM E-score” value was -0.195.
With AACATCGT the “PBM E-score” value was 0.0998.
For CGTTGGCA, the “PBM E-score” value was 0.0575.
CACTGAAC was tested, and the “PBM E-score” value was 0.0627.
With ACGCGGTC the “PBM E-score” value was -0.145.
ATCCCTAG was tested, and the “PBM E-score” value was -0.145.
ACCACCTA was tested, and the “PBM E-score” value was 0.0154.
With AAAGGTAG the “PBM E-score” value was -0.114.
CTGCCCCC was tested, and the “PBM E-score” value was -0.257.
In the case of CTGACGCC, the “PBM E-score” value was 0.0592.
For ACTCATAA, the “PBM E-score” value was -0.0536.
With CTCTAAAG the “PBM E-score” value was -0.0956.
AGCTCATG was tested, and the “PBM E-score” value was -0.187.
With ACGCAACC the “PBM E-score” value was 0.148.
With CGGAGTCC the “PBM E-score” value was -0.00193.
With CGCGGCTA the “PBM E-score” value was 0.00151.
With AAGGGCAC the “PBM E-score” value was -0.0647.
With GCATTGCA the “PBM E-score” value was 0.0622.
With ATACTGAC the “PBM E-score” value was 0.0347.
TCGAACGA was tested, and the “PBM E-score” value was 0.0875.
With GAGGTATC the “PBM E-score” value was 0.00329.
In the case of CATAAATA, the “PBM E-score” value was 0.268.
With CGGTGTAC the “PBM E-score” value was 0.029.
With CTGAAAAC the “PBM E-score” value was 0.0248.
With CCAAATAG the “PBM E-score” value was 0.0193.
In the case of ATGCCCTA, the “PBM E-score” value was -0.157.
With CCTCTTCG the “PBM E-score” value was -0.104.
In the case of CTTGCCTC, the “PBM E-score” value was 0.0771.
For CCCACGAG, the “PBM E-score” value was -0.23.
ACGTGGAG was tested, and the “PBM E-score” value was -0.147.
AGACTGTC was tested, and the “PBM E-score” value was -0.141.
In the case of CCGGCTAC, the “PBM E-score” value was 0.0776.
In the case of CCACTAGA, the “PBM E-score” value was -0.152.
For GCGATGGA, the “PBM E-score” value was -0.113.
For AGTATATA, the “PBM E-score” value was 0.295.
In the case of CGCCCCAC, the “PBM E-score” value was 0.272.
With AGCTTGCC the “PBM E-score” value was -0.158.
For AGGACTCC, the “PBM E-score” value was -0.253.
For AACGAGCC, the “PBM E-score” value was 0.0134.
With CATACCTC the “PBM E-score” value was -0.064.
For AGCGTTCA, the “PBM E-score” value was -0.19.
With GGCAAACC the “PBM E-score” value was -0.193.
With TAACCTCA the “PBM E-score” value was -0.072.
AAATCTGA was tested, and the “PBM E-score” value was 0.266.
In the case of AGCTATGA, the “PBM E-score” value was -0.0667.
With CATCGGAC the “PBM E-score” value was -0.209.
In the case of GCGGTGAA, the “PBM E-score” value was 0.119.
With CCTGGGCA the “PBM E-score” value was -0.208.
